Experimental data reported in PMC4336329 (PLoS ONE, 2015).
About 14,000 (4.5%) of roughly 310,000 compounds showed an effect of 50% or more. The effect is printed as a negative number. This is one part of the list.

target: human ether-à-go-go-related gene (hERG) potassium channel (human, UniProt Q12809); assay: primary screen, population patch clamp on CHO cells stably expressing hERG
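Also: peak tail current of the secondary pulse compared with the same well before compound.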

human ether-à-go-go-related gene (hERG) potassium channel, sequence (Q12809 whole entry, looked up): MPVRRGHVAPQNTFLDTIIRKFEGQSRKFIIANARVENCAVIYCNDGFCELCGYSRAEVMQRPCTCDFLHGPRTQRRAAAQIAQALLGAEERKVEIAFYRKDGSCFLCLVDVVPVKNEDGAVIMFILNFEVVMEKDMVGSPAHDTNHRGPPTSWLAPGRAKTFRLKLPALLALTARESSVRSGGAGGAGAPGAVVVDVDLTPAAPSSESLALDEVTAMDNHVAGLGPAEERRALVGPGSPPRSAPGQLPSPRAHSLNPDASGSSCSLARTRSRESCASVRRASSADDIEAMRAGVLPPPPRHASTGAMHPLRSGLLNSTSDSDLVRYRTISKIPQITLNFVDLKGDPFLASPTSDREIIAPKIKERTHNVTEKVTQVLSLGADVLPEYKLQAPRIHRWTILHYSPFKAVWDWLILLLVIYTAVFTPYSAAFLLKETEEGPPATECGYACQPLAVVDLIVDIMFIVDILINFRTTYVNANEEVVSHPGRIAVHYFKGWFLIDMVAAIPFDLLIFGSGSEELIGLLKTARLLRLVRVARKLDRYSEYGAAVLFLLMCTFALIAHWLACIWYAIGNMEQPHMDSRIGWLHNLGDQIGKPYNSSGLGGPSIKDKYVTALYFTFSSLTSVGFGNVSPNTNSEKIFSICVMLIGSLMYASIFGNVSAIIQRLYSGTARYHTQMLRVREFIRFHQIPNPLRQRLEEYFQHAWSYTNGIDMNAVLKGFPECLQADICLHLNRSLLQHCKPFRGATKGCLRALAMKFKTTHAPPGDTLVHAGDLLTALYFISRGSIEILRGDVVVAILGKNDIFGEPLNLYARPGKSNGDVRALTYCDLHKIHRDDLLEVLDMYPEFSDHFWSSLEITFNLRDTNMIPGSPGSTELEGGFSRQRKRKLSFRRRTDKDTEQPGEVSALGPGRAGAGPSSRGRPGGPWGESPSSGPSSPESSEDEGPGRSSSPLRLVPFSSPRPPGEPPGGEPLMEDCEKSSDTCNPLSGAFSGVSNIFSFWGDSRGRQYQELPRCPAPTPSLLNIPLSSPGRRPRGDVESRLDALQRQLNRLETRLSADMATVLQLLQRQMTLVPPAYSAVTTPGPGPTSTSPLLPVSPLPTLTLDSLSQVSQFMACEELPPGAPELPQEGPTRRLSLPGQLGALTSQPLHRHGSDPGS

SMILES	hERG current change (%, negative = inhibition) at 10uM [%]
O=C(CC12CC3CC(CC(C3)C1)C2)N/N=C\c1ccc[nH]1	3.75
CS(=O)(=O)Nc1ccc(C(=O)NCCC2=CCCCC2)cc1	-38.7
Cc1cc(C)c(C)c(OCCCCN2CCCCC2)c1	-52.5
CCCOc1cc(CC(=O)NCc2ccco2)ccc1OC	12.7
CC1(c2ccccc2)NC(=O)N(CC(=O)NC(=O)NC2CCCC2)C1=O (stereo not shown)	0.115
Cn1cnc([N+](=O)[O-])c1Nc1ccc(O)cc1	9.63
COc1ccccc1CNC(=O)COc1ccc(C)cc1	-2.42
C=CCn1c(SCC(=O)N(CCOC)c2c(N)n(CCCC)c(=O)[nH]c2=O)nnc1-c1ccc(Cl)cc1	4.06
Cc1ccc2c(c1)N(CC(=O)NCCc1ccccc1)C(=O)c1cccnc1O2	-4.02
Fc1ccc(Cn2ccc(-c3cnc(-c4ccccc4)s3)n2)cc1	6.92
COc1ccccc1CNC(=O)c1ccccc1N(C)S(C)(=O)=O	-1.07
O=C(CCCOc1ccccc1)Nc1ccncc1	8.26
NS(=O)(=O)c1cccc(NC(=O)COC(=O)CNC(=O)c2ccc(-c3ccccc3)cc2)c1	5.77
CN(C)C(=O)Oc1ccc(OC(=O)c2ccccc2)cc1	7.81
CCOc1ccc2c(c1)-c1c(ssc1=S)C(C)(C)N2C(=O)CSC1=NCCS1	13.1
Cc1ccc(C(=O)COC(=O)C2CC3CCCC(C2)C3=O)cc1[N+](=O)[O-] (stereo not shown)	-7.77
COc1ccc2c(c1)C(c1cccs1)=NNC(c1cccnc1)=N2	10.4
Cc1ccc2c(c1)cc1c(=O)n(CC(=O)NCCCc3ccccc3)nc(C)n12	18.2
N#Cc1cc2c(=O)n3ccccc3nc2n(Cc2cccnc2)c1=O	-21
CN(C(=O)CSc1nc2ccccc2s1)c1c(N)n(Cc2ccccc2)c(=O)[nH]c1=O	-5.47
COc1n[nH]c(C(=O)Nc2nc3ccccc3s2)c1[N+](=O)[O-]	16
Cc1ccc(S(=O)(=O)NCCN2CCNC2=O)cc1	3.9
CNC(=O)c1ccccc1Sc1ccccc1C#N	19.1

SMILES	hERG current change (%, negative = inhibition) at 10uM [%]
O=C(O)c1ccccc1C(=O)NCCc1ccc(Cl)cc1	19.9
CCOc1ccccc1CNC(=O)CCc1cn(C)c2ccccc12	14.5
CCc1nn2cc(-c3ccccc3)nc2s1	6.77
COc1cccc(-n2nnc3c(=O)n(CC(=O)N4CCCCC4)cnc32)c1	-9.71
CCn1c(SCC(=O)Nc2ccc3c(c2)OCCO3)nnc1-c1cccs1	-44.9
O=C(O)c1ccc(N=NN2CCOCC2)cc1	1.57
COc1cc([N+](=O)[O-])ccc1NC(=O)CSc1ccccn1	8.33
OCCN(CC#CCC(O)(c1ccccc1)C1CCCC1)CCO (stereo not shown)	7.63
CCOC(=O)c1cc2sccc2n1CC(=O)N1CCCC1	-8.74
COc1cccc(-c2nc(CSCC(=O)N3CCc4ccccc43)c(C)o2)c1	5.03
CCCCCCCOc1ccc(-c2ccc(C#N)cn2)cc1	-11.2
CC1CCC2(CC1)C(Nc1cccc(Cl)c1)=NC(=S)N2CC#N (stereo not shown)	-1.43
O=C(NCc1ccc2c(c1)OCO2)c1cc(=O)[nH]c2ccccc12	7.04
CCOC(=O)N1CCC(NC(=O)c2cc(COc3c(C)cccc3C)on2)CC1	-38.3
COc1ccccc1CNC(=O)Cn1cccc1C(=O)c1ccccc1	8.74
O=C(c1cc2c(s1)-c1ccccc1OC2)N1CCN(c2ccccn2)CC1	-3.38
CCC(=O)c1ccc(N2CCN(C(=O)COc3ccccc3F)CC2)c(F)c1	-50.9
CN(C)CC1CCCCC1C1(O)c2ccccc2CSc2sccc21 (stereo not shown)	-31.3
Cc1cccc(OCCCCCn2ccnc2)c1C	-13.7
N#Cc1ccc(OCc2nnc(-c3ccc([N+](=O)[O-])cc3)o2)cc1	-41.7
Cc1nc2ccc(S(=O)(=O)NC(C(=O)NCc3ccc4c(c3)OCO4)C(C)C)cc2s1 (stereo not shown)	-5.4
O=C(NCc1cccc(Br)c1)c1cc(-c2ccccc2)nn1CC1CC(c2cccc([N+](=O)[O-])c2)=NO1 (stereo not shown)	-0.929
Cc1ccc2c(c1)c1ncn(Cc3ccc(F)cc3)c(=O)c1n2C	-6.32
